Source: paper PMC5892938
Some of the results follow. At the low end of the ranking the order means little.

These sequences were tested against GST-SBP-SLBP (stem-loop binding protein) (UniProt Q14493) (assay: targeted RNA Bind-n-Seq). Conditions: RBNS binding buffer: 25 mM Tris pH 7.5, 150 mM KCl, 3 mM MgCl2, 0.1% Tween, 0.5 mg/mL BSA, 1 mM DTT; 27 nM protein, 750 pM RNA pool; temperature not stated; high values mean tight binding.
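Note: DESeq read counts versus GST-SBP nonspecific binding control pulldown.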

| Sequence | binding signal (log2 fold change) |
| --- | --- |
| GGUCACGUCUCAAUCAACUCAAUCCCCAGGGAAACCCCUGGCAAAUUCAACAGCUCGCAGUCAAG | 0.0937 |
| GGUCACGUCUCAAUCAACUCUCUCGAGGGGGGGAAAACCCCUUUGCCCUCAAUCUCAACAGCUCGCAGUCAAG | -0.324 |
| GGUCACGUCUCAAUCAACUCAUUUCCCAGGGAAAACCCUGGCAUACUCAACAGCUCGCAGUCAAG | -0.00898 |
| GGUCACGUCUCAAUCAACUCGUCUUCAGGAGUUUUCUCCUGUUUUUUCAACAGCUCGCAGUCAAG | 0.0169 |
| GGUCACGUCUCAAUCAACUCAACUUCAGGAGUUUGCUCCUGUAAUCUCAACAGCUCGCAGUCAAG | -0.225 |
| GGUCACGUCUCAAUCAACUCUUUCGAGGGGGGGAAAACCCCUUUACCCUCUUUAUCAACAGCUCGCAGUCAAG | -0.348 |
| GGUCACGUCUCAAUCAACUCUAUCUCAGGAGUUUCCUCCUGUAUUUUCAACAGCUCGCAGUCAAG | 0.0919 |
| GGUCACGUCUCAAUCAACUCAUGUCCCAGGGAAAUCCCUGGCUUUUUCAACAGCUCGCAGUCAAG | 0.0751 |
| GGUCACGUCUCAAUCAACUCAAUAGAGGGGGGGAAAACCCCUUUACCCUCAUCUUCAACAGCUCGCAGUCAAG | 0.225 |
| GGUCACGUCUCAAUCAACUCAUCUUCAGGAGUUUACUCCUGUUAACUCAACAGCUCGCAGUCAAG | -0.0386 |
| GGUCACGUCUCAAUCAACUCAACAGAGGGGGGGAAAACCCCUUUACCCUCACUCUCAACAGCUCGCAGUCAAG | 0.255 |
| GGUCACGUCUCAAUCAACUCACAAGAGGGGGGGAAAACCCCUUUGCCCUCAAUCUCAACAGCUCGCAGUCAAG | -0.181 |
| GGUCACGUCUCAAUCAACUCAGUCUCAGGAGUUUGCUCCUGUAUAUUCAACAGCUCGCAGUCAAG | 0.0038 |
| GGUCACGUCUCAAUCAACUCAUCUUCCAGGGAAACCCCUGGUAAUUUCAACAGCUCGCAGUCAAG | -0.198 |
| GGUCACGUCUCAAUCAACUCUACAGAGGGGGGGAAAACCCCUUUACCCUCACUAUCAACAGCUCGCAGUCAAG | 0.238 |
| GGUCACGUCUCAAUCAACUCAAUUUCAGGAGUUUUCUCCUGUUAAUUCAACAGCUCGCAGUCAAG | 0.122 |
| GGUCACGUCUCAAUCAACUCCCAAGAGGGGGGGAAAACCCCUUUACCCUCCAAAUCAACAGCUCGCAGUCAAG | -0.0211 |
| GGUCACGUCUCAAUCAACUCAACUUCCAGGGAAAUCCCUGGCGUAUUCAACAGCUCGCAGUCAAG | 0.0255 |
| GGUCACGUCUCAAUCAACUCAUCCCCCAGGGAAAACCCUGGCAUACUCAACAGCUCGCAGUCAAG | 0.251 |
| GGUCACGUCUCAAUCAACUCUUUCUCAGGAGUUUACUCCUGUAUACUCAACAGCUCGCAGUCAAG | -0.0154 |
| GGUCACGUCUCAAUCAACUCGUUUUCAGGAGUUUACUCCUGCAUUCUCAACAGCUCGCAGUCAAG | -0.0417 |
| GGUCACGUCUCAAUCAACUCAUCUCCAGGAGUUUGCUCCUGUAAUUUCAACAGCUCGCAGUCAAG | 0.0228 |
| GGUCACGUCUCAAUCAACUCGUUUUCAGGAGUUUCCUCCUGCUUUUUCAACAGCUCGCAGUCAAG | 0.0986 |
| GGUCACGUCUCAAUCAACUCCUACGAGGGGGGGAAAACCCCUUUACCCUCACUAUCAACAGCUCGCAGUCAAG | -0.185 |
| GGUCACGUCUCAAUCAACUCUCUCGAGGGGGGGAAAACCCCUUUACCCUCACAUUCAACAGCUCGCAGUCAAG | -0.0368 |

| Sequence | binding signal (log2 fold change) |
| --- | --- |
| GGUCACGUCUCAAUCAACUCUUCUUCCAGGGAAACCCCUGGUUAUGUCAACAGCUCGCAGUCAAG | 0.0256 |
| GGUCACGUCUCAAUCAACUCUAUCCCAGGAGUUUCCUCCUGUAUACUCAACAGCUCGCAGUCAAG | 0.121 |
| GGUCACGUCUCAAUCAACUCAAUUUCCAGGGAAAACCCUGGUUUUCUCAACAGCUCGCAGUCAAG | -0.00218 |
| GGUCACGUCUCAAUCAACUCAUCCCCAGGAGUUUUCUCCUGCAAAGUCAACAGCUCGCAGUCAAG | -0.137 |
| GGUCACGUCUCAAUCAACUCAAUCUCCAGGGAAAGCCCUGGUUUUCUCAACAGCUCGCAGUCAAG | 0.0377 |
| GGUCACGUCUCAAUCAACUCAGUCCCAGGAGUUUCCUCCUGUAUAUUCAACAGCUCGCAGUCAAG | -0.0465 |
| GGUCACGUCUCAAUCAACUCAAUCCCAGGAGUUUGCUCCUGCAUUCUCAACAGCUCGCAGUCAAG | 0.124 |
| GGUCACGUCUCAAUCAACUCAGUUCCCAGGGAAAACCCUGGCAUUUUCAACAGCUCGCAGUCAAG | 0.253 |
| GGUCACGUCUCAAUCAACUCUUCCCCCAGGGAAAGCCCUGGCUUUCUCAACAGCUCGCAGUCAAG | 0.0293 |
| GGUCACGUCUCAAUCAACUCAAUUCCCAGGGAAACCCCUGGUUAUCUCAACAGCUCGCAGUCAAG | 0.185 |
| GGUCACGUCUCAAUCAACUCUUCCUCCAGGGAAAACCCUGGUAAUGUCAACAGCUCGCAGUCAAG | 0.123 |
| GGUCACGUCUCAAUCAACUCAUCUUCCAGGGAAAACCCUGGUUUUUUCAACAGCUCGCAGUCAAG | -0.154 |
| GGUCACGUCUCAAUCAACUCAAUCUCCAGGGAAAACCCUGGUUUUCUCAACAGCUCGCAGUCAAG | -0.291 |
| GGUCACGUCUCAAUCAACUCAUCGCCAGGAGUUUUCUCCUGUUAAUUCAACAGCUCGCAGUCAAG | 0.223 |
| GGUCACGUCUCAAUCAACUCACAAGAGGGGGGGAAAACCCCUUUACCCUCCUUAUCAACAGCUCGCAGUCAAG | 0.265 |
| GGUCACGUCUCAAUCAACUCUACUCCCAGGGAAACCCCUGGUAUACUCAACAGCUCGCAGUCAAG | -0.0845 |
| GGUCACGUCUCAAUCAACUCUUUCGAGGGGGGGAAAACCCCUUUACCCUCAAUCUCAACAGCUCGCAGUCAAG | -0.00262 |
| GGUCACGUCUCAAUCAACUCAACUUCAGGAGUUUGCUCCUGUAUAUUCAACAGCUCGCAGUCAAG | 0.0392 |
| GGUCACGUCUCAAUCAACUCUACUUCCAGGGAAAACCCUGGUUUAUUCAACAGCUCGCAGUCAAG | 0.0206 |
| GGUCACGUCUCAAUCAACUCCUCCGAGGGGGGGAAAACCCCUUUACCCUCAACAUCAACAGCUCGCAGUCAAG | -0.143 |
| GGUCACGUCUCAAUCAACUCUUCCUCCAGGGAAAUCCCUGGUAUUCUCAACAGCUCGCAGUCAAG | -0.215 |
| GGUCACGUCUCAAUCAACUCUUUUCCCAGGGAAAGCCCUGGUUAAUUCAACAGCUCGCAGUCAAG | 0.00624 |
| GGUCACGUCUCAAUCAACUCUACUUCCAGGGAAAUCCCUGGCAUUUUCAACAGCUCGCAGUCAAG | -0.132 |
| GGUCACGUCUCAAUCAACUCCACAGAGGGGGGGAAAACCCCUUUACCCUCAUAAUCAACAGCUCGCAGUCAAG | 0.145 |
| GGUCACGUCUCAAUCAACUCUAUUUCAGGAGUUUUCUCCUGCUAACUCAACAGCUCGCAGUCAAG | -0.00845 |

| Sequence | binding signal (log2 fold change) |
| --- | --- |
| GGUCACGUCUCAAUCAACUCCUACGAGGGGGGGAAAACCCCUUUACCCUCAUAAUCAACAGCUCGCAGUCAAG | 0.382 |
| GGUCACGUCUCAAUCAACUCUAUCCCCAGGGAAACCCCUGGCUAACUCAACAGCUCGCAGUCAAG | -0.029 |
| GGUCACGUCUCAAUCAACUCCCAAGAGGGGGGGAAAACCCCUUUGCCCUCGAAAUCAACAGCUCGCAGUCAAG | -0.0324 |
| GGUCACGUCUCAAUCAACUCCAAAGAGGGGGGGAAAACCCCUUUGCCCUCACACUCAACAGCUCGCAGUCAAG | -0.32 |
| GGUCACGUCUCAAUCAACUCCUCAGAGGGGGGGAAAACCCCUUUACCCUCCAAAUCAACAGCUCGCAGUCAAG | 0.29 |
| GGUCACGUCUCAAUCAACUCCUAGGAGGGGGGGAAAACCCCUUUACCCUCAAUUUCAACAGCUCGCAGUCAAG | -0.728 |
| GGUCACGUCUCAAUCAACUCAUCUUCAGGAGUUUCCUCCUGCAUAGUCAACAGCUCGCAGUCAAG | 0.163 |
| GGUCACGUCUCAAUCAACUCAGUCCCAGGAGUUUCCUCCUGCAAUUUCAACAGCUCGCAGUCAAG | 0.123 |
| GGUCACGUCUCAAUCAACUCUAUUCCCAGGGAAAACCCUGGUAUUUUCAACAGCUCGCAGUCAAG | -0.468 |
| GGUCACGUCUCAAUCAACUCUUAGGAGGGGGGGAAAACCCCUUUACCCUCACACUCAACAGCUCGCAGUCAAG | -0.529 |
| GGUCACGUCUCAAUCAACUCACUAGAGGGGGGGAAAACCCCUUUACCCUCACCUUCAACAGCUCGCAGUCAAG | 0.0195 |
| GGUCACGUCUCAAUCAACUCCUUAGAGGGGGGGAAAACCCCUUUACCCUCACUCUCAACAGCUCGCAGUCAAG | 0.217 |
| GGUCACGUCUCAAUCAACUCUUCUUCCAGGGAAACCCCUGGCGUUUUCAACAGCUCGCAGUCAAG | -0.228 |
| GGUCACGUCUCAAUCAACUCAAACGAGGGGGGGAAAACCCCUUUACCCUCACAAUCAACAGCUCGCAGUCAAG | 0.141 |
| GGUCACGUCUCAAUCAACUCAAUCUCAGGAGUUUUCUCCUGCUAAUUCAACAGCUCGCAGUCAAG | 0.113 |
| GGUCACGUCUCAAUCAACUCUUCGUCCAGGGAAAACCCUGGUUUAUUCAACAGCUCGCAGUCAAG | 0.152 |
| GGUCACGUCUCAAUCAACUCAUUCUCAGGAGUUUUCUCCUGCAAUUUCAACAGCUCGCAGUCAAG | -0.00595 |
| GGUCACGUCUCAAUCAACUCAUCCUCAGGAGUUUCCUCCUGCUUACUCAACAGCUCGCAGUCAAG | 0.00531 |
| GGUCACGUCUCAAUCAACUCUUUCUCCAGGGAAAACCCUGGCAUGUUCAACAGCUCGCAGUCAAG | 0.117 |
| GGUCACGUCUCAAUCAACUCUACUUCCAGGGAAAACCCUGGCUAUGUCAACAGCUCGCAGUCAAG | -0.00788 |
| GGUCACGUCUCAAUCAACUCAUCCUCAGGAGUUUCCUCCUGUAUUCUCAACAGCUCGCAGUCAAG | 0.0834 |
| GGUCACGUCUCAAUCAACUCUAUUCCAGGAGUUUCCUCCUGCAUAUUCAACAGCUCGCAGUCAAG | 0.0229 |
| GGUCACGUCUCAAUCAACUCUUCCUCCAGGGAAAUCCCUGGCAAAUUCAACAGCUCGCAGUCAAG | -0.0463 |
